Screen size: about 390,000 compounds; about 4,700 (1.2%) were called active. Inconclusive results (about 4%) are left out. Calls follow the shape of the dose curve; as a rule, active = well fitted inhibition curve with a large enough effect; inconclusive = small, poorly fitted or top-dose-only effect, or another doubt; inactive = no such curve, though single readings can be large or run the other way. The entries are a selection whose mix differs from that of the whole data set.
These compounds were tested against DNA polymerase eta (Homo sapiens) (UniProt Q9Y253) (assay: qHTS for Inhibitors of Polymerase Eta). Conditions: recombinant Pol eta, fluorescent DNA replication assay; series mostly up to 114 µM; activity change, negative = inhibition: at the top concentration.
Summary of the method: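 Pol eta at 10 nM preincubated with compounds 15 min at room temperature; reaction started with fluorescent substrate (50 nM final) and read kinetically at 0 and 10 min.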
% is scaled to controls: 0 for no effect and ±100 for the full control effect; potency is read from the fitted curve at half-maximal effect.

Chain of UniProt Q9Y253 (Q9Y253 whole entry, looked up): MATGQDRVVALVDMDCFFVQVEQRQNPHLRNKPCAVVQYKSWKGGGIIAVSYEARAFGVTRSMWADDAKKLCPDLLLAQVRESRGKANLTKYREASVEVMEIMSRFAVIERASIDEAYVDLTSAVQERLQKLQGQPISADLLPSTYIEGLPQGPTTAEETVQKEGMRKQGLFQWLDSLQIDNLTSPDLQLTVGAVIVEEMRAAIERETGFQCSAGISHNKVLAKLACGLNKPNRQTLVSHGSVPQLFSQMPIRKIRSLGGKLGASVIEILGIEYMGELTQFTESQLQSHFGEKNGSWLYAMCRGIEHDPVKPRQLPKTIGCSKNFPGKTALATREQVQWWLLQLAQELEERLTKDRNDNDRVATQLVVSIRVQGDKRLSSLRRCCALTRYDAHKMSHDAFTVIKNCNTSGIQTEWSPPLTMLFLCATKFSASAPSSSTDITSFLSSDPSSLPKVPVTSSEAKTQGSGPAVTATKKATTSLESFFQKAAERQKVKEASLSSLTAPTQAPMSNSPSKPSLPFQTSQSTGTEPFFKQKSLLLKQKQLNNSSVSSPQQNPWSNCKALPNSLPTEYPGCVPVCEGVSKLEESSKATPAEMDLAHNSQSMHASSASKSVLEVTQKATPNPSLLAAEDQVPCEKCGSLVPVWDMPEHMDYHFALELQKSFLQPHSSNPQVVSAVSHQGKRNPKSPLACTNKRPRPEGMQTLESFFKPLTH

SMILES | activity change, negative = inhibition | Potency
CCc1ccccc1N(C(C)=O)c1nc(CN=C=S)cs1 | inactive: 21.2% | –
COc1ccc(-c2cc(C(=O)Nc3cc(C)nn3-c3ccccc3)no2)cc1OC | – | inactive
Cn1c(SCC(=O)N/N=C/C=C\c2ccco2)nc2ccccc21 | – | active: 22.4 µM
C=CC[C@@H](Cc1ccc(F)cc1)C(=O)OC[C@H]1CCCN1C(=O)[C@@H](CC=C)CC(=O)N[C@@H](CO)Cc1ccccc1 | inactive: -24.2% | –
O=C(Cc1ccc(S(=O)(=O)N2CCOCC2)s1)Nc1nc2c(s1)CCCC2 | – | active: 3.98 µM
Cc1cccc(NC(=O)Nc2ccc(C)c(C)c2)n1 | inactive: -17.1% | –
COc1ccc(Cl)cc1NC(=O)c1noc2c1CCCC2 | inactive: 44.8% | –
O=C(/C=C/c1ccc(O)c(O)c1)OCCc1ccccc1 | inactive: 4.64% | –
CCN(CC)c1ccc(SS(=O)(=O)O)cc1 | inactive: -19.8% | –
N=C1/C(=C\c2ccc(SCc3ccccc3)o2)C(=O)N=C2SC(CC(=O)N3CCOCC3)=NN12 | – | active: 56.2 µM
Cc1c2cnn(CC(=O)Nc3c(F)c(F)cc(F)c3F)c(=O)c2c(C)n1Cc1ccccc1F | – | active: 39.8 µM
Nc1nc(NCC2CCCO2)nc(Nc2cccc(F)c2)c1[N+](=O)[O-] (centres undefined) | inactive: 34.3% | –
O=C(CSc1nc(-c2ccccc2)nc2ccc(F)cc12)Nc1cccc(C(=O)O)c1 | – | active: 79.4 µM
COC(=O)C1=CO[C@@H](O[C@@H]2O[C@H](CO)[C@@H](O)[C@H](O)[C@H]2O)C2C1C=C[C@@]2(O)CO (some centres undefined) | inactive: -15.7% | –
NC(=O)c1nn(-c2ccccc2)nc1NC(=O)CN1CCOCC1 | inactive: 41.6% | –
COC(=O)C(CC(C)C)NC(=O)CNC(=O)c1ccccc1C (centres undefined) | inactive: -14.9% | –
Cc1cc(C=O)c(C)n1-c1cccc(C(=O)O)c1 | – | active: 3.98 µM
O=C(N/N=C/c1ccc(O)cc1O)c1ccc(NC(=O)C2CCCCC2)cc1 | – | active: 35.5 µM
CC(=O)C[C@H](O)CC(=O)[C@H]1OC(=O)[C@@H](C)C/C=C\Cc2ccccc21 | inactive: -12.9% | –
CN(C(=O)CCS(=O)(=O)c1cc2c(cc1Cl)NC(=O)CO2)C1CCCCC1 | inactive: 0.526% | –
OCC[C@H]1C[C@H](O)[C@@H](O)[C@]2(CCCc3ccccc3O2)O1 | inactive: 1.82% | –
C[C@@H]1O[C@@H](OC[C@@H]2O[C@H](Oc3c(-c4ccc(O)cc4)oc4cc(O)cc(O)c4c3=O)[C@@H](O)[C@H](O)[C@H]2O)[C@H](O)[C@H](O)[C@H]1O | inactive: 3.73% | –

SMILES | activity change, negative = inhibition | Potency
CCOCCc1c(O)nc(SCC(=O)NCc2ccco2)[nH]c1=O | – | active: 15.8 µM
Cc1cc(Oc2ccc(=O)n(C)n2)nc(SCC(N)=O)n1 | inactive: 29.3% | –
C[C@@H](NC(=O)c1ncn(Cc2ccccc2)c1C(=O)N[C@H](C)c1ccccc1)c1ccccc1 | inactive: -18.9% | –
COc1ccccc1N1CCN(C(=O)c2cc3c(=O)n(C)c4ccccc4c3n2C)CC1 | inactive: -11.9% | –
O=C(Cc1ccc(S(=O)(=O)N2CCCC2)s1)NC1CCCCCC1 | – | active: 14.1 µM
Cc1c(NC(=O)c2ccccc2F)cccc1-c1nc2cccnc2s1 | inactive: 22.9% | –
O=c1c(C(c2ccc(F)cc2)c2c(O)nc3n(c2=O)CCCS3)c(O)nc2n1CCCS2 | inactive: 29.8% | –
COc1cccc(/C=C2\SC(=S)N(CCCC(=O)N3CCCCC3)C2=O)c1 | inactive: 18.4% | –
CN(C(=O)COC(=O)c1nc(-c2ccccc2)n(-c2ccccc2)n1)C1CCS(=O)(=O)C1 (centres undefined) | inactive: -2.3% | –
O=C(O)/C(=C\c1ccc(Cl)c([N+](=O)[O-])c1)c1ccc(S(=O)(=O)N2CCCCC2)s1 | – | active: 79.4 µM
NC(=O)CSc1nnc2ccc(-c3ccc(F)cc3)nn12 | inactive: 45.1% | –
CC(=O)Nc1ccc(Nc2nnc(-c3ccc(C)c(S(N)(=O)=O)c3)c3ccccc23)cc1 | inactive: -29% | –
O=C(O)CC(NC(=O)C(c1ccccc1)c1ccccc1)c1cccc([N+](=O)[O-])c1 (centres undefined) | inactive: 22.6% | –
O=C(CCCN1C(=O)/C(=C\c2cccs2)SC1=S)NNC(=O)c1ccncc1 | inactive: -11.1% | –
O=C(O)c1cccc(NC(=O)c2ccc3c(c2)C(=O)N(Cc2ccco2)C3=O)c1 | – | active: 17.8 µM
Cc1ccccc1/C=C/c1nc2ccccc2c(=O)n1Cc1ccccc1 | inactive: -3.47% | –
Cc1nc(/C=C/c2ccccc2)[nH]c(=O)c1-c1ccccc1 | inactive: -6.85% | –
Cc1onc(-c2ccc(Cl)cc2Cl)c1C(=O)/C=C/N(C)C | inactive: 22.2% | –
CCOCCCNC(=O)C(c1ccc(C)cc1)N(Cc1ccc2c(c1)OCO2)C(=O)c1cnccn1 (centres undefined) | inactive: 7.08% | –
COc1ccccc1NC(=O)C(CCS(C)(=O)=O)N1C(=O)c2ccccc2C1=O (centres undefined) | inactive: -7.87% | –
CCOC(=O)c1ccc(S(=O)(=O)N2CCN(S(=O)(=O)CC)CC2)cc1 | inactive: 0.266% | –
CC(=O)c1ccc(NC(=O)c2ccc(-c3nc(CSc4ccccc4)c(C)o3)cc2)cc1 | inactive: 15% | –

Source: PubChem BioAssay AID588591 (National Center for Advancing Translational Sciences (NCATS), 2011)
